# According to paper PMC4336329 (PLoS ONE, 2015):
# Out of some 310,000 compounds screened, about 14,000 (4.5%) showed an effect of 50% or more. Effects have a minus sign here. The list shows a part of the results.
# Target: human ether-à-go-go-related gene (hERG) potassium channel (human, UniProt Q12809)
# Assay: primary screen, population patch clamp on CHO cells stably expressing hERG
# 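Further: peak tail current of the secondary pulse compared with the same well before compound.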
# human ether-à-go-go-related gene (hERG) potassium channel, sequence (Q12809 whole entry, looked up): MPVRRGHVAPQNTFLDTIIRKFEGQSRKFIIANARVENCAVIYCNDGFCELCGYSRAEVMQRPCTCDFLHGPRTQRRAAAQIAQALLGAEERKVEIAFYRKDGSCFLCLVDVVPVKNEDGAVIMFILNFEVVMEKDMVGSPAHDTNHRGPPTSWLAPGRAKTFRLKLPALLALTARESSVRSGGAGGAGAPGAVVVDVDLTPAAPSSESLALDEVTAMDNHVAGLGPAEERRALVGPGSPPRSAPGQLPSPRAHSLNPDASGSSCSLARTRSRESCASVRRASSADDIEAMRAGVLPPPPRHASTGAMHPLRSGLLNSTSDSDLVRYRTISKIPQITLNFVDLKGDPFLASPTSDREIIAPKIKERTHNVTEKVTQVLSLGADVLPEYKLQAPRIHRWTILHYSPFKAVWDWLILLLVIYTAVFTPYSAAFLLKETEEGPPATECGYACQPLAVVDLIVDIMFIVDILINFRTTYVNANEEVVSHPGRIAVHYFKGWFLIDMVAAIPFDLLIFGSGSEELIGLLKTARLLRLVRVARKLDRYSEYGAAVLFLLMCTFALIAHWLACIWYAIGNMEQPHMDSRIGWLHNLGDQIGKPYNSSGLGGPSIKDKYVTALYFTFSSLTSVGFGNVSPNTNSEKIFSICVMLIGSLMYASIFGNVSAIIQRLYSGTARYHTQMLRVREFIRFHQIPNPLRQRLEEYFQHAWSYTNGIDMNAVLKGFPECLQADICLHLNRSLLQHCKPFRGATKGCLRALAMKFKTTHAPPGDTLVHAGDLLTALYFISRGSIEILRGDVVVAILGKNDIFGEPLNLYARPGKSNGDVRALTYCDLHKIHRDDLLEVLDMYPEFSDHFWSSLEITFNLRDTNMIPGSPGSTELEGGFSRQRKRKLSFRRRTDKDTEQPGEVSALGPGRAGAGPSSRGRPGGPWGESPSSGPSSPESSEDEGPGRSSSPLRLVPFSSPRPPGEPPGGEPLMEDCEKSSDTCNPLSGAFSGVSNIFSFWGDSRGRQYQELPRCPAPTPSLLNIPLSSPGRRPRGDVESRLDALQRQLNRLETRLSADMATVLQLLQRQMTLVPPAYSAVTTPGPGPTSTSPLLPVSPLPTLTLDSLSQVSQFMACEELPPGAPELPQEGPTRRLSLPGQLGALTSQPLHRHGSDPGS
row,Structure (SMILES),"hERG current change (%, negative = inhibition) at 10uM [%]"
1,Cc1ccc(OCC(=O)Nc2ccccc2N2CCCC2)c(C)c1,-3.14
2,Cc1ccc(/C=N/NC(=O)CSc2nc3ccccc3c(=O)n2-c2ccccc2C)s1,-14.6
3,CN(CC(=O)Nc1ccc(F)cc1)C(=O)C1CCN(S(=O)(=O)c2ccc3c(c2)OCCO3)CC1,-20.9
4,OCCC1CN(Cc2ccc3nsnc3c2)CCN1C1CCCC1 (stereo not shown),-25
5,O=C(O)CCCC(=O)Nc1nc(-c2ccccc2)cs1,8.03
6,Cc1ccc(S(=O)(=O)Nc2ccccc2N2CCOCC2)cc1,11.7
7,CCOc1ccc(CN2CCNC(=O)C2CC(=O)NCc2csc(C)n2)cc1 (stereo not shown),5.96
8,C/C(=N\O)C(C)NC(=O)c1ccccc1 (stereo not shown),23
9,CC(C)OCCCNCc1cccs1,2.03
10,O=C(Nc1ccc(S(=O)(=O)N2CCC(C(=O)NC3CCCCC3)CC2)cc1)c1ccco1,4.01
11,CCCCCC(=O)N/N=C/c1ccccc1[N+](=O)[O-],-15.4
12,Cc1c(CCC(=O)NCCCn2ccnc2)c(=O)oc2cc3oc4c(c3cc12)CCCC4,-48.5
13,O=C(Oc1cccc(C(=S)N2CCOCC2)c1)c1ccc([N+](=O)[O-])cc1[N+](=O)[O-],-14.4
14,Cc1ccc(NS(=O)(=O)c2ccc3c(c2)n(C)c(=O)c(=O)n3C)c(C)c1,-21.3
15,COc1ccc(Cn2c(C3CC3)nc3ccc(NC(=O)c4ccco4)cc3c2=O)cc1,-7.52
16,CC(=O)Nc1sc2c(c1C#N)CCN(Cc1ccccc1)C2.Cl,9.85
17,COC(=O)C1C(=O)C(C(=O)c2ccccc2)C(=O)CC1(C)C (stereo not shown),0.179
18,COc1ccc(OC)c(NC(=O)CCc2nnc3ccc(N4CCC(C)CC4)nn23)c1,-26.1
19,Cc1cc(Br)ccc1NC(=O)CNC(=O)CSc1ncccn1,-2.38
20,COc1ccc(CC(=O)Nc2nccs2)cc1OC,-2.88
21,O=[N+]([O-])c1ccccc1S(=O)(=O)NCc1cccnc1,18.7
22,CCN(CC)c1ccc(-c2nn3c(-c4ccccc4OC)nnc3s2)cc1,1.59
23,O=c1cc2ncc(-c3[nH]ncc3[N+](=O)[O-])cn2[nH]1,13.3

row,Structure (SMILES),"hERG current change (%, negative = inhibition) at 10uM [%]"
1,Cc1cc2cc(CNC(=S)Nc3ccc(OC(F)(F)F)cc3)ccc2n1C,16.4
2,C/C(=N\O)C(C)(C)Nc1ccccc1F,4.26
3,COc1ccc(OC)c(NS(=O)(=O)c2c(C)nc3sccn3c2=O)c1,-12.5
4,COCCCNC(=O)c1cccn2c(=O)c3cc4ccccc4cc3nc12,-42.2
5,CCOC(=O)N1CCN(C(=O)CCNS(=O)(=O)c2ccc3c(c2)c(=O)n(C)c(=O)n3C)CC1,29.8
6,O=c1[nH]c(O)c(N=Nc2cc([N+](=O)[O-])ccc2O)c(=O)[nH]1,-17.7
7,O=C(CSC(=S)N1CCCCC1)Nc1nc(-c2ccccc2)c(-c2ccccc2)o1,-8.32
8,COc1ccc(CNC(=O)CN(Cc2ccccc2)C(=O)CCC(=O)Nc2nccs2)cc1,8.76
9,O=C(CCC1CCN(C(=O)c2ccco2)CC1)NCc1ccc(F)cc1,-72.6
10,O=C(NCCC1CCCCN1S(=O)(=O)c1ccccc1)C(=O)NCC1CCCO1 (stereo not shown),-2.54
11,COc1ccc(-c2nn3c(-c4cccc(C)c4)nnc3s2)cc1OC,16.3
12,CCCCCC(=O)NNC1=NCC(Cc2ccccc2)S1 (stereo not shown),-3.13
13,COc1nccnc1NS(=O)(=O)c1ccc(NC(=S)NC(=O)/C=C/c2ccccc2)cc1,-2.3
14,O=C1CCCc2sc3c(c2N1)CCCCC3,-0.836
15,CSc1cccc(NC(=O)CN(C2CCCCC2)S(C)(=O)=O)c1,-7.59
16,CCOc1ccc(N(CC(=O)NCc2ccccc2C)S(C)(=O)=O)cc1,-11.4
17,Cc1ccc(/C=N\NC(=O)c2ccc3c(c2)OCO3)o1,7.74
18,CCCC(O)(c1ccc(Cl)cc1)C(CN1CCOCC1)c1ccccc1 (stereo not shown),-4.29
19,Cc1cccnc1CN1CCN(C(=O)CCc2nnc(CCc3ccccc3)o2)CC1,7.74
20,CC1NC(=O)N(C)C2NC(=O)N(C)C(c3ccccc3)C12 (stereo not shown),13
21,O=C(N=C1SC2CS(=O)(=O)CC2N1Cc1ccccc1Cl)C1CC1 (stereo not shown),8.94
22,COc1ccccc1CNC(=O)c1cnn2c(C(F)F)cc(C)nc12,-26.4
23,Cc1ccc(C(=O)N/C(=C\c2ccccc2)C(=O)NCc2cccnc2)cc1,-71.9

row,Structure (SMILES),"hERG current change (%, negative = inhibition) at 10uM [%]"
1,COc1cccc(-n2nnnc2SCC(=O)Nc2ccc(NC(C)=O)cc2)c1,17.5
2,CC(C)N(CCO)Cc1nc(C(c2ccccc2)c2ccccc2)no1,9.82
3,O=C(c1ccc([N+](=O)[O-])cc1)N1CCC(n2nnc3cc(F)ccc32)CC1,-71.9
4,COc1cccc(C(CC(=O)NCCN2CCOCC2)NS(=O)(=O)c2ccc(C)cc2)c1OC (stereo not shown),5.97
5,Nc1ccc(-n2nncc2-c2ccc(Cl)cc2)cc1,-35.9
6,O=C(CSC1=NS(=O)(=O)c2cc(Cl)ccc2N1)NCc1ccccc1,8.6
7,O=C(COc1ccccc1)NCC(=O)NC1CCCCC1,26.1
8,COc1ccc(Cl)cc1NC(=O)c1cc(-c2ccccc2)on1,23.1
9,COc1ccccc1OC(=O)c1cc(Cl)nc2ccccc12,4.45
10,Cc1ccccc1-c1nc(SCc2ccccn2)c2c(=O)n(C)c(=O)n(C)c2n1,28.7
11,CCOC(=O)c1csc(NC(=O)CC2CCCC2)n1,-17.4
12,Cc1cc(C(=O)CN2C(=O)C(=O)N(C3CCCC3)C2=O)c(C)n1CCc1ccc(F)cc1,-38.1
13,O=C(Nc1nnc(-c2ccc(F)cc2)o1)c1cccc([N+](=O)[O-])c1,-2.84
14,CSC(=S)N/N=C/c1ccc(N(C)C)cc1,15
15,CCn1cc(CNC(=S)Nc2cccc(Cl)c2C)cn1,9.81
16,Nc1nonc1-n1nnc(C(=O)N/N=C/c2ccc3c(c2)OCO3)c1-c1ccccc1,17.3
17,CCCCN(CC)CCCNC(=O)c1cn(C)c2ccc(S(=O)(=O)N(C)C3CCCCC3)cc2c1=O,-73.2
18,Cc1cccc[n+]1CC(=O)c1ccc(NC(=O)c2ccccc2)cc1.[Br-],28.6
19,Cc1cccc(C)c1OCCCN1CCOCC1.Cl,-1.08
20,Clc1ccccc1-c1nc2ccccc2[nH]1,-18.4
21,CCOc1ccccc1NC(=O)CSc1nnc(CNC(=O)c2cccs2)o1,-3.92
22,CN1CCN(CCC(=O)Nc2ccccc2)CC1,-5.19
23,Cc1cccc(N2N=C(C(=O)Nc3nc(C)cs3)CCC2=O)c1,5.36

row,Structure (SMILES),"hERG current change (%, negative = inhibition) at 10uM [%]"
1,COC(=O)c1cc(NC(=O)Nc2cccc(Cl)c2)ccc1Cl,8.99
2,Cc1cccc(COC(=O)CCCNC(=O)c2ccc(Cl)cc2)c1,-35.9
3,CN(C)c1cccc2c(S(=O)(=O)NCc3ccc(S(N)(=O)=O)cc3)cccc12,-0.0683
4,COc1ccccc1NS(=O)(=O)c1ccc(C)c(C(=O)NCC(c2ccco2)N2CCCCC2)c1 (stereo not shown),-44.9
5,COc1ccc(C(=O)N(Cc2ccccc2)c2cccc(C)c2)cc1S(=O)(=O)N1CCOCC1,-35.8
6,COCC(=O)NNC(=O)Cc1ccc(Cl)cc1,20
7,CCC(CO)NCC#Cc1ccccc1.Cl (stereo not shown),-0.65
8,CC1(C)C2CCC1(C)C(OC(=O)c1ccc(O)cc1)C2 (stereo not shown),4.06
9,Cc1cc(C)nc(Nc2ncn[nH]2)n1,-73.3
10,N#CCC(=O)N/N=C/c1coc2ccccc2c1=O,-1.24
11,CCOC(=O)c1ccc2c(c1)nc(SCC(=O)NC(C)C)n2CC,3.95
12,CC(C)C(=O)N(Cc1cc(=O)[nH]c2ccccc12)c1ccccc1,7.64
13,O=C(O)c1cc(S(=O)(=O)N2CCCc3ccccc32)ccc1Cl,17.6
14,Cc1ccc(N2CC(C(=O)NCC3CCCO3)CC2=O)cc1Cl (stereo not shown),11.1
15,COc1ccc(NC(=O)c2cccc3cccnc23)cc1S(N)(=O)=O,29.2
16,Cc1ccc(OC(=O)c2cc(C)nn2C(C)(C)C)cc1,6.98
17,O=C(NCc1ccc(F)cc1)C(=O)NCC(c1ccco1)N1CCOCC1 (stereo not shown),1.3
18,O=C1NC2(CCC3(CC2)OCCO3)NN1c1ccccc1,-36.9
19,CCNC(=S)NNC(=O)Cc1ccccc1,23.9
20,COc1ccc(C(=O)NNC(=S)NC(=O)c2ccc(Cl)cc2)cc1,20
21,O=C(Nc1ccc(F)cc1)Nc1sccc1-c1nc2ccccc2s1,1.38
22,O=C(NCC1CCC(C(=O)O)CC1)c1cccnc1 (stereo not shown),24
